In the supplement of paper PMC11417369:
Some of the results follow.

Each sequence was assayed on PfAP2-HC AP2 domain (GST-tagged) (assay: gcPBM binding intensity (ln(normalized median fluorescence intensity)); higher = stronger DNA binding).
Procedure, shortened: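 In this array assay, P. falciparum DNA-binding domains with a GST tag, expressed in E. coli, were applied for 1 h to primer-extended double-stranded 36-bp intergenic genomic probes and negative controls on an Agilent 4 × 180k array. Bound protein was visualised with Alexa488 anti-GST antibody at 488 nm. Binding intensity is the highest Masliner-normalised natural-log median intensity across replicate spots of either probe orientation.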

Sequence | gcPBM binding intensity (ln)
TATTTTCTCTTAAAAAGTACTCATATATACATTTAT [XGTACX_site7748] | 9.64
TTTAGTTCATACTATGCACACTACGTATATTTTTAA [CACACA_site5484] | 9.8
ATAACATACATAACAACACACAATATTTATAGGTAT [CACACA_site6243] | 10.6
CGTTATATATTTTATAGTACTTTTTGTAAATTTTTT [XGTACX_site7682] | 9.59
ATTAATAAGAAGAAAAGTACAAAACAAAAAGATATA [XGTACX_site7473] | 9.72
TAACCAAAAAAAAATATTTAAAATAAATATATATAT [CACACA_negctrl_site1516] | 9.54
ATTTAACCAAATAATATATTTAAAAAATAGTCACAT [CACACA_negctrl_site274] | 9.58
TTAATTTATGTTAATGGTACGTAAATGCATTTATTT [XGTACX_site3002] | 9.69
TTTTATAATTTGAGAACATGCAACATAAATATAAAG [TGCATGCA_site965] | 9.52
TATAATATATGAAAAAGTACAAATATTTCGATGGTC [XGTACX_site129] | 9.76
TGTTCTAATATTTGTTGTACGTTTACGTTTCTCTCT [XGTACX_site18] | 9.78
AACATTTTAAAATAATGTACTTGAAAAAAAAACTAC [XGTACX_site8894] | 9.51
CATATAAATAAATATACATGCATACATACATATATA [TGCATGCA_site713] | 9.68
TATTTAAGAGTATGAACACACATCATACCCATATAA [CACACA_site5911] | 9.84
AAAAATTCAATAGGACGTACTAAAACATTCATTAAT [XGTACX_site1712] | 9.6
TTTAGTGTTATAAAAAGTACATAATAATTCCTTTTC [XGTACX_site3208] | 9.42
TTATAAATAATGAGAAACATTAAATTTAATCATAAA [CACACA_negctrl_site523] | 9.53
TACTATATATATATATATATATATATATATATTTAT [GTGCAC_negctrl_site593] | 9.61
TAGTATTAAATATATACACACATATATACCTATAGA [CACACA_site5219] | 9.78
AAAATGTAATATTGGGTGCACAATAAGTTTGATGTC | 10
TGAAAAGATAAAAAAAGTACACACACACATATATAT [XGTACX_site6504] | 10.6
AATATGTACAGACATACACACATATTTATATTTATA [CACACA_site6694] | 9.88
TTATATAAAGAATGTACACACAGAAATGCACAGACA [CACACA_site5288] | 10.1

Sequence | gcPBM binding intensity (ln)
GCTTATATTAATAAGGTGCTTTTTATTTCGTGTGTA [GTGCAC_site9649] | 9.92
TCATAGTATAAACACACACACACACCCATATATATA [CACACA_site8512] | 11
AGAATGGTTTATAAAGGTACGTAATTTTTAATTTTA [XGTACX_site383] | 9.51
ATATGTCCATATAGTAAATGTTACATTTTAAAGCGC [XGTACX_negctrl_site168] | 9.61
CATATTTTGTGAAAAAGTACATATATATATATATAT [XGTACX_site6295] | 9.51
AAAATATTTATTTTTTGTACACATAAAAACGCACTT [XGTACX_site4132] | 9.68
ATTCTTAAAAAATAAGTGCAAAATAATTAAATAAAT | 9.67
TATTGAATAAAATGCACACGCATGCGTTATTTATTA [CACACA_site3479] | 9.69
AAACGTATTCTATAAAGTACATTATTATAGTAGACC [XGTACX_site8068] | 9.68
TAAAAAAATTATATTTGTACATATTAATATAGCCTT [XGTACX_site4833] | 9.63
TTATAATTAAATTTCACACAGTTCATAACATAATTA [CACACA_site5501] | 9.5
TAAGGGAGAGATTTGTATCATAAGCAACTTTCAAAA [CACACA_negctrl_site1436] | 9.47
TTTATATGTTTTAAGTGTACACATATAATGTATTTT [XGTACX_site3069] | 9.76
ACTTTCAACATGAAGTTGCACTTTTTTTTTTTTCTT | 9.93
AGCCCTTTTTTTTTTTAGAATATTGCATAATTATAT [XGTACX_negctrl_site546] | 9.75
TATATAAATATATCCACACACATACCTATATTAATA [CACACA_site6184] | 10.4
GTATTGTATGGATGGGGTACTATATATATATATTTT [XGTACX_site1694] | 10
AGACAATATTAATAAGGTACACATATATATTAAAAA [XGTACX_site6709] | 9.78
TAATTAAATAAAAAAAAATATATATATATATATATA [XGTACX_negctrl_site616] | 9.58
TTTTTTAAAAATAACTGTACAGAGGCTGTTAGGATA [XGTACX_site2521] | 9.54
TCCATATGCATGTATTGTACTGTAATATATTAAAAA [XGTACX_site472] | 9.38
AAAAAAAAAAAAGAAACACACACATATATATATATA [CACACA_site8525] | 10.7
AGCAGTCGACAGGACAGTACACAGTAGCCAGGAAAT [XGTACX_site4929] | 9.65

Sequence | gcPBM binding intensity (ln)
TAAATATATAAATACACACACACCAAAGCAATAGAT [CACACA_site5605] | 10.5
TTTGATAATAAGATATAATACTTAAATATATATATA [GTGCAC_negctrl_site339] | 9.36
AAATATATATTCAAAAGTACACAATTTGTTAATAAT [XGTACX_site8917] | 9.62
TATTTTACGCGGTTTATAATGACATGTTCTATATTT [CACACA_negctrl_site1184] | 9.79
TGAATATAACAAATATGTACTTAAAATTGTTATATT [XGTACX_site5679] | 9.47
CACACTTGCTCCTGTTGTACATAACCATAAGCAACA [XGTACX_site2102] | 9.58
ATTATTAAAAATATGGGTACATATTATTGTTATATA [XGTACX_site1958] | 9.46
TTATATTTTACAAATGCACACATAATTTTTTTTTTT [CACACA_site8890] | 9.7
AAAAAAAAAAAAAAATGTACATGACATGACATGACA [XGTACX_site4020] | 9.61
TAAAGAAATAAATACATACACACATATATATATATA [CACACA_site3363] | 9.89
AAACTTTACATTACTTGTACATATATTCTATATAAT [XGTACX_site8640] | 9.92
CACGCGCACCAACACACACACACACCCATATATATA [CACACA_site2204] | 11.1
GTTGGGTAATTCGTAACACACATAAAATATATATAA [CACACA_site3986] | 9.76
CTGTACACTTAAACGGTGCAAAAAGAAAAAAAAGAA | 9.68
TGCCTATGACATGAATGTACATTAAAATTAAATAAA [XGTACX_site7126] | 9.48
TTTTTTTCTTAAAGATGTACTTTTTAAAAACAATCT [XGTACX_site986] | 9.26
CATTTTATAAAAACAAGTACCCAACATATATATAAT [XGTACX_site5955] | 9.64
AGACATATTCTTTTTACACACTTGAATAAAAAATAT [CACACA_site1205] | 9.56
GATGAGGACAGACACACACACATAAGTTGATACATA [CACACA_site7580] | 10.5
GTTTTTACTTTTATCTGTACATAATACTACCAATAT [XGTACX_site5414] | 9.8
TATATATTAAGATGCACACACAAGAAGTAATTATAA [CACACA_site5726] | 10
ATTTTTTCTTATAAAAAAGAAAAAGAAAAAGAAAAA [CACACA_negctrl_site1216] | 9.25
ACAGCTCTAGGACATGCATGTTATATAGAAAAAGAG [TGCATGCA_site703] | 9.65

Sequence | gcPBM binding intensity (ln)
AAGTTAATGTTTTGCGCACACTTCTTTTTAATATAA [CACACA_site3938] | 9.99
TTCTTTATATAAACAAGTACATATAAAATACATATA [XGTACX_site8036] | 9.48
AAATACATATTTAGAAGTACATTTATACATTTAATA [XGTACX_site8871] | 9.61
TTCATTAAAGTTATTACACACAGTTCTTCAACCAAA [CACACA_site7613] | 9.66
TGATATAAAATTAAAGTGCAAAAAAAAAATAAAAAA | 9.79
ATAATATTATGAACCTGTACATAATTTTTCTTTTCT [XGTACX_site3377] | 9.62
TATAATTTTTTTGAATTATATATATATATATATAAT [XGTACX_negctrl_site26] | 9.37
AGTATATTTCTAACTTGTACGAAATTAATAATTTAT [XGTACX_site6635] | 9.47
TATATATAATATGAATGTACACAAAAAGGTAATACA [XGTACX_site6202] | 9.87
AAAAAAAAGAAATAGACACACATATATTTTTAAACA [CACACA_site3954] | 9.79
AGGAAATTTTTTTTTTTTTTTTTTTTTTTTTTTTAC [TGCATGCA_negctrl_site170] | 9.06
ATAATATATAATATAGTGCATTATTTATTAATTAAT [GTGCAC_site9852] | 9.46
TCCTAATGGTTTAATTGTACAAAAAAAAAAAATATA [XGTACX_site322] | 9.37
TGATAAGTATACTAAAGTACATGAAAAATAACTTCC [XGTACX_site6908] | 9.76
ATAGATGTCTTCATATGTACATAAATTCAAGTATAT [XGTACX_site7492] | 9.61
TGATTATAAAAGTAGGTGCTACAAAAATTACACATT [GTGCAC_site9530] | 9.56
CAAAATATTATGAATTGTACATATTTTAAAACGTTT [XGTACX_site1614] | 9.6
GGTCTTTTTATGATATGTACTTATATAATATTATAT [XGTACX_site6458] | 9.85
ATGTAGAAGTAATGCACACATATGTATATATATATA [CACACA_site2494] | 10.2
AACAGCATGAAGTAAAGTACTAGTTTTATTTATTTA [XGTACX_site1116] | 9.64
